# PubChem BioAssay AID894 (National Center for Advancing Translational Sciences (NCATS), 2007)
# In all, about 150,000 compounds went through this assay and about 6,500 (4.3%) were called active. Inconclusive results, whose numbers are uncertain, are shown with a selection of clear calls. Calls follow the shape of the dose curve; as a rule, active = well fitted inhibition curve with a large enough effect (not every such curve was filed as active); inconclusive = small, poorly fitted or top-dose-only effect, or another doubt; inactive = no such curve, though single readings can be large or run the other way. No potency is given beside an inconclusive call; the fits are too rough.
# Target: 15-hydroxyprostaglandin dehydrogenase [NAD(+)] (Homo sapiens) (UniProt P15428)
# Assay: qHTS Assay for Inhibitors of HPGD (15-Hydroxyprostaglandin Dehydrogenase)
# Conditions: purified HPGD, NADH fluorescence kinetic, PGE2 substrate; activity change, negative = inhibition: active compounds read low
# Summary of the method: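 NADH formation kinetics: reaction with 30 uM PGE2 and 1 mM NAD+ (final), 20 nM enzyme, Tris-HCl pH 8 with Tween 20, after 15 min compound preincubation at room temperature. Fluorescence change, last versus first of five reads.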
# % is scaled to controls: 0 for no effect and ±100 for the full control effect; potency is read from the fitted curve at half-maximal effect; tags tell the direction and shape of the fitted curve.
# Chain of UniProt P15428 (P15428 whole entry, looked up): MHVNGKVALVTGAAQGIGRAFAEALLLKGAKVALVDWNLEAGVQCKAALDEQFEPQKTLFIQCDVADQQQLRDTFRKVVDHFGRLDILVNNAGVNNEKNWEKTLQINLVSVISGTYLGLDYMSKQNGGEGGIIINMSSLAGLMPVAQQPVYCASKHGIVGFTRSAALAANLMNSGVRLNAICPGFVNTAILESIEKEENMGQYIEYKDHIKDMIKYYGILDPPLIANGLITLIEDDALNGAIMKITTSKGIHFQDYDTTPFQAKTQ
SMILES,Potency,"activity change, negative = inhibition"
COc1cc(NC(=S)N2CCN(C(=O)c3ccco3)CC2)c(OC)cc1Cl,active: 31.6 µM,
CCN(CC(=O)Nc1ccc2c(c1)OCO2)Cc1nc2ccccc2c(=O)[nH]1,,inactive: -6.26%
CC(=O)N1CCc2c(sc(NC(=O)C3CC3)c2-c2nc3ccccc3s2)C1,"inconclusive [inhibitor, partial curve]",
CCn1c(SCC(=O)c2ccc(C)cc2)nnc1-c1ccoc1C,active: 31.6 µM,
COc1cccc(OC)c1NC(=O)CN1CCC(NC(=O)c2cccc(F)c2)CC1,,inactive: -13.5%
Cc1nc2ccc(S(=O)(=O)NC(C(=O)NCc3cccs3)C(C)C)cc2s1 (stereo unspecified),"inconclusive [inhibitor, single point]",
Cc1ccc(C2C(C(=O)c3cccs3)=C(O)C(=O)N2CCN2CCOCC2)o1 (stereo unspecified),,inactive: -16.2%
Cc1nn(-c2ccccc2)c2sc(C(=O)OCn3nnc4ccccc4c3=O)cc12,"inconclusive [inhibitor, partial curve]",
C1COC1,,inactive: -6.13%
Cc1nn(-c2ccccc2)cc1/C=N/NS(=O)(=O)c1ccccc1,"inconclusive [inhibitor, partial curve]",
Cn1c(=O)c2c(nc(/C=C/c3cccc(Cl)c3)n2C)n(C)c1=O,"inconclusive [inhibitor, full curve]",
O=C(N/C(=C/c1ccc(Cl)cc1)c1nc2ccccc2[nH]1)c1ccco1,"inconclusive [inhibitor, partial curve]",
COc1ccc(-c2[nH]ncc2/C=C(/C#N)C(=O)NC2CCCCC2)cc1,"inconclusive [inhibitor, single point]",
CCN(CC)Cc1c(O)c(Cl)cc2c(C)c(C)c(=O)oc12,"inconclusive [inhibitor, full curve]",
COc1ccc2[nH]c(=O)c(CN(C)C(=O)c3ccncc3)cc2c1,"inconclusive [inhibitor, partial curve]",
CCCn1c(C)nc2c(NCc3ccccc3)nc(C)nc21,,inactive: -11.1%
CCCC(=O)Nc1cccc(-c2nc3cc(C)c(C)cc3o2)c1,"inconclusive [inhibitor, partial curve]",
CCNc1ncc2nc(-c3ccccc3)c(=O)n(Cc3ccc(F)cc3)c2n1,"inconclusive [inhibitor, partial curve]",
CSc1ccccc1-c1nnc(-c2ccc(Cl)cc2)o1,"inconclusive [inhibitor, partial curve]",
O=C(CCN1C(=O)c2ccccc2C1=O)Nc1ccc(-c2nc3ccccc3o2)cc1,"inconclusive [inhibitor, partial curve, poor fit]",
CCN(Cc1ccccc1)c1ccc(/C=N/NS(=O)(=O)c2ccc(C)c([N+](=O)[O-])c2)cc1,"inconclusive [inhibitor, single point]",
COC(=O)c1cn(NC(=O)CCC2CCCC2)c(=O)c2ccccc12,"inconclusive [inhibitor, single point]",
COC(=O)CC1=NN(c2ccc(OC)cc2)C(=O)/C1=C\c1ccc(Cl)cc1,active: 25.1 µM,
O=C(c1ccc(=O)[nH]c1)N(Cc1ccco1)C1(C(=O)NC2CCCCC2)CCCCC1,"inconclusive [inhibitor, single point]",

SMILES,Potency,"activity change, negative = inhibition"
CC(C)CN(C#N)c1nc(N2CCOCC2)nc(N2CCOCC2)n1,,inactive: -11.3%
CC(=O)c1ccc2c3c(cccc13)CC2,"inconclusive [inhibitor, partial curve]",
CCOC(=O)CC(=O)CSc1ccc2nnc(-c3ccc(C)cc3)n2n1,active: 12.6 µM,
CCN(CC)S(=O)(=O)c1ccc(Nc2ccc(-c3ccc4c(c3)OCCO4)nn2)cc1,"inconclusive [inhibitor, single point]",
CCOC(=O)c1c(NC(=S)NC)sc2c1CC(C)(C)SC2,"inconclusive [inhibitor, partial curve]",
CCn1c(C(=O)NCc2ccccn2)cc2sccc21,active: 17.8 µM,
O=C(CSc1nnc(-c2cc(-c3cccs3)nc3ccccc23)o1)NC1CCCCC1,"inconclusive [inhibitor, partial curve]",
O=C(c1ccco1)N1CCN(S(=O)(=O)c2ccc(Br)s2)CC1,"inconclusive [inhibitor, single point]",
COc1ccc(-c2cc(C(F)(F)F)nc(S(C)(=O)=O)n2)cc1OC,"inconclusive [inhibitor, partial curve]",
CCN(CC)CCCn1c(-c2ccccc2)nc2c(NCCOC)nc(C)nc21,"inconclusive [inhibitor, partial curve]",
COc1ccc2[nH]c3c(=O)n(N)c(C)nc3c2c1,"inconclusive [inhibitor, partial curve]",
O=C(NC(=S)Nc1ccc(N2CCCCC2)cc1)c1ccc2c(c1)OCCO2,active: 28.2 µM,
C#CCSc1nccc(-c2nn(-c3ccc(C)cc3)ccc2=O)n1,"inconclusive [inhibitor, partial curve]",
COc1nc(NCCO)nc(Nc2ccc([N+](=O)[O-])cc2)n1,active: 20 µM,
Cn1c(C(=O)NCCCN2CCN(c3cccc(Cl)c3)CC2)cc2c(=O)n(C)c3ccccc3c21,"inconclusive [inhibitor, partial curve]",
CSC1CCCCC1(O)CSc1nc2c(cc1C#N)CCCC2 (stereo unspecified),active: 7.94 µM,
O=C1Nc2ccc(S(=O)(=O)N3CCCC3)c3cccc1c23,,inactive: -21.6%
CC(=O)C1=C(C)NC(SCC(=O)c2ccccc2)=C(C#N)C1c1ccco1 (stereo unspecified),active: 31.6 µM,
COc1ccc(C2SCC(C(=O)NCc3ccc(F)cc3)N2C(C)=O)cc1 (stereo unspecified),,inactive: -0.831%
c1ccc2c(c1)ncc1cccn12,"inconclusive [inhibitor, partial curve]",
COc1cccc(-c2cc(C(=O)N3CCCCCC3)no2)c1,active: 2.51 µM,
Cc1cccc2cc(C#N)c(SCC(=O)N3CCC(C)CC3)nc12,"inconclusive [inhibitor, partial curve]",
CCC(CC)NC(=O)Cc1ccccc1[N+](=O)[O-],,inactive: 0.483%
CSc1ccc(/C=N/NC(=O)c2cccc(Cl)c2)cc1,"inconclusive [inhibitor, partial curve]",

SMILES,Potency,"activity change, negative = inhibition"
CCOC(=O)C(C)Oc1cccc2c(=O)n(CC(=O)N3CCCc4ccccc43)ccc12 (stereo unspecified),"inconclusive [inhibitor, partial curve]",
O=C(NCCN1CCOCC1)C1CCN(c2ncnc3c2sc2cccc(F)c23)CC1,"inconclusive [inhibitor, partial curve]",
CN(Cc1ccccc1)C(=O)c1ccccc1Br,"inconclusive [inhibitor, partial curve]",
COc1ccc(-n2c(C)cc(C(=O)COC(=O)c3cc(OC)c(OC)cc3NC(=O)c3cccs3)c2C)cc1,"inconclusive [inhibitor, partial curve]",
COc1ccc(OC)c(/C=N\NC(=O)CSc2nnc(CCCc3ccc(OC)c(C)c3)o2)c1,"inconclusive [inhibitor, partial curve]",
CC(C)(C)CC(C)(C)NC(=S)NC1CCN(Cc2ccccc2)CC1,,inactive: -2.1%
O=C(O)[C@@H]1[C@@H]2O[C@H]([C@@H](Br)[C@H]2Br)[C@H]1C(=O)O,,inactive: -16%
Cc1sc2ccccc2[n+]1CCC(C)S(=O)(=O)[O-] (stereo unspecified),,inactive: -16.2%
Cc1noc(C)c1C1(O)CCCCCCCCCCC1,,inactive: 3.15%
COc1ccc2c(c1)c(=O)oc1cc(OCC(=O)NC3CC3)ccc12,"inconclusive [inhibitor, single point]",
O=C(O)CSc1ccc2ccccc2n1,,inactive: -17.9%
COc1ccc(NS(=O)(=O)c2c(C)[nH]c(=O)[nH]c2=O)c(OC)c1,"inconclusive [inhibitor, single point]",
Cc1ccnc(NC(=O)c2ccccc2[N+](=O)[O-])c1,"inconclusive [inhibitor, single point]",
Cc1nc([N+](=O)[O-])c(Sc2nc3ccc([N+](=O)[O-])cc3[nH]2)n1Cc1ccccc1,"inconclusive [inhibitor, partial curve]",
Cn1nnnc1SCC(=O)Nc1nc(-c2ccccc2)c(-c2ccccc2)o1,"inconclusive [inhibitor, single point]",
O=C(NCc1ccccc1Cl)c1ccccc1Oc1ccccc1,,inactive: -4.84%
Cc1oc2cc(O)ccc2c(=O)c1Oc1ccc2ccccc2c1,"inconclusive [inhibitor, partial curve]",
O=c1c2c(n3cnnc3n1-c1ccccc1)-c1ccccc1CC21CCCC1,,inactive: -6.64%
Cc1scc(-c2n[nH]c(=S)n2C(C)c2ccccc2)c1C (stereo unspecified),active: 25.1 µM,
Cc1ccc2c(CN3CCN(Cc4ccc5c(c4)OCO5)CC3)cc(=O)oc2c1C,,inactive: -18.1%
Cc1noc(NS(=O)(=O)c2ccc(NC(=O)CSc3nc4c(cc3C#N)CCC4)cc2)c1C,active: 31.6 µM,
Cc1cc(C)c2nc(NC(=O)c3cccc(S(=O)(=O)N4CCc5ccccc54)c3)sc2c1,"inconclusive [inhibitor, full curve]",
Cc1ccc(-n2c(N)c(C(=O)N3CCCCC3)sc2=S)cc1,active: 10 µM,
